According to US20250049939A1, “NOVEL FLT3 ANTIBODIES AND ANTIBODY-DRUG-CONJUGATES BASED THEREON, THERAPEUTIC METHODS AND USES THEREOF IN COMBINATION WITH TYROSINE KINASE INHIBITORS” (TUBULIS GmbH, priority 2021, published 2025):

T1: Ba/F3 cells expressing human wildtype FLT3 (Homo sapiens, UniProt P36888)
T1 construct: expressed in transfected cells; host or cells: Ba/F3 cells, retrovirally transduced with MSCV-IRES-YFP (pMIY) vector
T1 sequence (P36888 27-993): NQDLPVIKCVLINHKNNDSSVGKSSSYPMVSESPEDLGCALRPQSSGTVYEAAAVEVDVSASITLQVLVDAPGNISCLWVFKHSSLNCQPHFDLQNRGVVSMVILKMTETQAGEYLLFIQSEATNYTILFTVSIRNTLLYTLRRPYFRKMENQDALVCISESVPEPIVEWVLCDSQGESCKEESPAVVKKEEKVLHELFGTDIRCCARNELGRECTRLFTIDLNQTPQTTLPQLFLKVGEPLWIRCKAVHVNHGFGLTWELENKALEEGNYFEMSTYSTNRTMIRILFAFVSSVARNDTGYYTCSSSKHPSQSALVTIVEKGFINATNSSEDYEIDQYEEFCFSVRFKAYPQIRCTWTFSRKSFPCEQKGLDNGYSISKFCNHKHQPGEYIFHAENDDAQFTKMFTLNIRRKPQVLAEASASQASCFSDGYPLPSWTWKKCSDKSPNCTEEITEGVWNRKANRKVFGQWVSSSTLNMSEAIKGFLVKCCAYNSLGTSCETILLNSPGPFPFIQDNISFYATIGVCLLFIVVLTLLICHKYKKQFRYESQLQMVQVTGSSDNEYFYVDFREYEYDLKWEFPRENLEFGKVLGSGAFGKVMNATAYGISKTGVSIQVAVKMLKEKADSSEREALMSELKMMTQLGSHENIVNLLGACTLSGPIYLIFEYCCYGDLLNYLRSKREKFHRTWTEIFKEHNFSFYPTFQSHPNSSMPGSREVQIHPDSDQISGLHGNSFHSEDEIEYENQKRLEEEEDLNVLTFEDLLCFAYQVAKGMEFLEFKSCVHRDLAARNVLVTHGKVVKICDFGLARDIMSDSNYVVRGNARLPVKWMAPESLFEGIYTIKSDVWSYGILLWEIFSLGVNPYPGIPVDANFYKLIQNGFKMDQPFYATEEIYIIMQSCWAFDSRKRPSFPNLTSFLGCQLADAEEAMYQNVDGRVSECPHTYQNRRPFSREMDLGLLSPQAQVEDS

T2: human wildtype FLT3 (hFLT3 wt) (Homo sapiens, UniProt P36888)
T2 construct: expressed in transfected cells; host or cells: Ba/F3 cells, retrovirally transduced with MSCV-IRES-YFP (pMIY) vector
T2 sequence (P36888 27-993): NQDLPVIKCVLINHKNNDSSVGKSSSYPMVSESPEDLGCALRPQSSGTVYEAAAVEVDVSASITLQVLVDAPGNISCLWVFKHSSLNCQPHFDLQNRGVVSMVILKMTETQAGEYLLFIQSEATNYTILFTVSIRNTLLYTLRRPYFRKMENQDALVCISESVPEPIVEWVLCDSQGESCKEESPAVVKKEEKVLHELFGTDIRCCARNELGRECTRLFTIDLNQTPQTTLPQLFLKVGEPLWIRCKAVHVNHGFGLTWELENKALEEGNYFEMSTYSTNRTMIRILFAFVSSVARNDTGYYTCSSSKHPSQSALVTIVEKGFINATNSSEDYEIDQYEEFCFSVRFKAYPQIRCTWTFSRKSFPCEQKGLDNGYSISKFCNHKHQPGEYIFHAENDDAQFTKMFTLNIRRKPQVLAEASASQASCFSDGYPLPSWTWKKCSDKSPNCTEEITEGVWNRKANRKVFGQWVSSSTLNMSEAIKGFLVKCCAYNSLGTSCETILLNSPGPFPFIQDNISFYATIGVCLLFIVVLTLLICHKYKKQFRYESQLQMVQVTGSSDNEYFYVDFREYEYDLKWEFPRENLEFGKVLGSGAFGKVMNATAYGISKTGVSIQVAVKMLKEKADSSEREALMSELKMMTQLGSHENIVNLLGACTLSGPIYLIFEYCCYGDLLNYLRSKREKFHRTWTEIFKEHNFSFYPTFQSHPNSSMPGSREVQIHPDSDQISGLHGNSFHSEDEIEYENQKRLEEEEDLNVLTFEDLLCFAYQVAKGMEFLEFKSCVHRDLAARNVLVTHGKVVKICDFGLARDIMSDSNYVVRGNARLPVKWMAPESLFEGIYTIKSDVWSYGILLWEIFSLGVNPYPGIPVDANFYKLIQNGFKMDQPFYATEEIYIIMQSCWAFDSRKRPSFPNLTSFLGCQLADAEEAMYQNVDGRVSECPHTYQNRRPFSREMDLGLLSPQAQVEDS

T3: recombinant human FLT3 (Homo sapiens, UniProt P36888)
T3 construct: purchased Sino Biological 10445-H08H
T3 sequence (P36888 27-541 limits assumed): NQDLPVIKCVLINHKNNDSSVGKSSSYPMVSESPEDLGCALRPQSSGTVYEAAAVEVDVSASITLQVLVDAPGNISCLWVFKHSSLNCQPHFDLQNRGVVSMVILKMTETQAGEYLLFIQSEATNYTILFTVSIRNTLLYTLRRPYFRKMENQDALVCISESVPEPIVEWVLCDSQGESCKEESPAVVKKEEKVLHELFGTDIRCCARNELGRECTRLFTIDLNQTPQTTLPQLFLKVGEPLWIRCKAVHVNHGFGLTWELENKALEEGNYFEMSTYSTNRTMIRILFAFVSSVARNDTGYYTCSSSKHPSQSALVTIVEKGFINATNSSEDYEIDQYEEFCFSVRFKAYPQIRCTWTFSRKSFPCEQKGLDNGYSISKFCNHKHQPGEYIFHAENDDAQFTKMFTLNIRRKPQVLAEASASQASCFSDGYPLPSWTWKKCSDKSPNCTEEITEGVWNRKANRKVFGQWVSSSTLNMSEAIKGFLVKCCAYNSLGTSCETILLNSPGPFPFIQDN


How the values were obtained:
[1] = target: T1, Ba/F3 cells expressing human wildtype FLT3; assay: Temperature induced internalization in Ba/F3-FLT3, flow cytometry; assay type: cell-based; conditions: 30 min at 37° C. compared to 4° C.
Text: FIG. 1: Evaluation of epitope specificity and internalization capability of anti-FLT3 monoclonal antibodies. (A) Affinity of seven anti-FLT3 monoclonal antibody (mab) clones to recombinant human FLT3 measured in enzyme-linked immunosorbent assay (ELISA) normalized to the binding of the antibodies to BSA control. […] (B) Schematic FLT3 receptor. Black arrows indicate common mutations and blue arrows indicate the three identified epitopes of seven anti-FLT3 antibodies analyzed in linear epitope mapping by PEPperPRINT. Figure was created with BioRender.com. (C) Binding and temperature induced internalization of anti-FLT3 antibodies in Ba/F3 cells expressing human wildtype FLT3. […] Remaining surface-bound antibody was detected in flow cytometry. […] MFI=mean fluorescence intensity. […] (D) Cell surface binding of 20D9 mab or control human IgG1 antibody to Ba/F3 cells stably expressing pMIY (Ba/F3-pMIY) empty vector (ev), human wildtype (hFLT3 wt) or ITD mutant human FLT3 (hFLT3ITD) was measured in flow cytometry. […] (E) Temperature induced internalization of 4B12 mab in MOLM-13 (FLT3 positive) cells after 30 min incubation at 37° C. compared to 4° C. and HL-60 (FLT3 negative) after 37° C. incubation assessed in immunofluorescence staining. […] (G) Cell surface binding of 20D9 mab or control hIgG1 antibody to Ba/F3-PMIY ev, hFLT3 wt or epitope mutant FLT3 (hFLT3/S50P/P54R) measured in flow cytometry. […]

[2] = system: MOLM-13 (FLT3 positive) cells; assay: Temperature induced internalization in MOLM-13, flow cytometry; assay type: cell-based, human; conditions: 30 min at 37° C. compared to 4° C.
Experimental: (§1) For antibody binding studies, cells were stained on ice with primary mouse, rat or human anti-FLT3 antibodies (in house) and secondary antibody Goat F(ab′)2 Anti-Human Ig-PE (2012-09), Goat Anti-Mouse IgG (H+L)-PE (1032-09) or Goat Anti-Rat IgG (H+L)-PE (3052-09) purchased from Southern Biotech. For internalization experiments, cells incubated with anti-FLT3 antibodies were washed and incubated for 30 min at 4° C. or 37° C. followed by staining with secondary antibody.

[3] = target: T2, human wildtype FLT3 (hFLT3 wt); assay: Cell surface binding to Ba/F3 hFLT3 wt, flow cytometry
Experimental: as §1
For FLT3 expression analysis, cells were stained on ice with primary mouse anti-FLT3-AF647 antibodies for 30 min. For antibody binding studies, cells were stained on ice with chimeric (20D9) or humanized anti-FLT3 antibodies (in house) or IgG1 control with or without Leu234Ala/Leu235Ala (LALA)-mutation in the Fc region and secondary antibody goat F(ab′)2 Anti-Human IgG-AF647 (2042-31) purchased from Southern Biotech for 30 min, respectively. Binding and expression were subsequently measured at the flow cytometer (BD FACSCanto II) and the results were evaluated with FlowJo version 10.8.1.

[4] = target: T3, recombinant human FLT3; assay: ELISA affinity to recombinant human FLT3; assay type: binding; conditions: chimeric Ab clones
Text: FIG. 1: Evaluation of epitope specificity and internalization capability of anti-FLT3 monoclonal antibodies. (A) Affinity of seven anti-FLT3 monoclonal antibody (mab) clones to recombinant human FLT3 measured in enzyme-linked immunosorbent assay (ELISA) normalized to the binding of the antibodies to BSA control. […] (B) Schematic FLT3 receptor. Black arrows indicate common mutations and blue arrows indicate the three identified epitopes of seven anti-FLT3 antibodies analyzed in linear epitope mapping by PEPperPRINT. Figure was created with BioRender.com. (C) Binding and temperature induced internalization of anti-FLT3 antibodies in Ba/F3 cells expressing human wildtype FLT3. Internalization was induced by incubation for 30 min at 37° C. (grey) compared to 4° C. (black). Remaining surface-bound antibody was detected in flow cytometry. MFI was normalized to control human IgG1 binding. MFI=mean fluorescence intensity. […] (D) Cell surface binding of 20D9 mab or control human IgG1 antibody to Ba/F3 cells stably expressing pMIY (Ba/F3-pMIY) empty vector (ev), human wildtype (hFLT3 wt) or ITD mutant human FLT3 (hFLT3ITD) was measured in flow cytometry. Mean±s.d. of n=3. (E) Temperature induced internalization of 4B12 mab in MOLM-13 (FLT3 positive) cells after 30 min incubation at 37° C. compared to 4° C. and HL-60 (FLT3 negative) after 37° C. incubation assessed in immunofluorescence staining. […] (F) Cell surface binding of 20D9 mab or control hIgG1 antibody to Ba/F3-pMIY ev, hFLT3 wt, murine (mFLT3 wt) or cynomolgues monkey FLT3 (cynoFLT3 wt) was measured in flow cytometry. […] (G) Cell surface binding of 20D9 mab or control hIgG1 antibody to Ba/F3-PMIY ev, hFLT3 wt or epitope mutant FLT3 (hFLT3/S50P/P54R) measured in flow cytometry. […] (H) Cell surface binding of 20D9 mab or control hIgG1 antibody to Ba/F3-PMIY ev, hFLT3 wt or human CD64 (hCD64) measured in flow cytometry. […]
Maxisorp plates were coated with human recombinant FLT3 protein (10445-H08H, Sino Biological). […] The fluorescence was read with excitation of 405 nm and emission at 500-550 nm. […]

Row | Molecule | Internalization in Ba/F3-FLT3 [1] | Internalization in MOLM-13 [2] | Binding to Ba/F3-FLT3 cell line by flow cytometry [3] | Affinity Kd [4]
1 | 29H1: chimeric anti-FLT3 antibody from mouse; VH SEQ ID NO: 13, VL SEQ ID NO: 14 (antibody, V domains shown, Clone 29H1, heavy chain variable region without a signal seqeunce; Clone 29H1, light chain variable region without a signal seqeunce) VH: EVKLEESGGGLVQPGGSMKFFCVASGFTFSNYWMNWVRQSPEKGLEWVAQIKLKSDNYATRYAESVKGRFTISRDDSKSSVNLQMNNLRAEDTGIYYCTVSLARSDYWGQGTTLTVSSAS VL: DVVMTQTPLTLSVAIGQPASISCKSSQSLLHSDGKTYLNWLLHRPGQSPKRLIYLVSKLDSGVPDRFTGSGSGTDFTLKISRVEAEDLGVYYCWQGTHFPYTFGGGTKLEIKR | 71% | 53% | specifically bound | 0.0284 µg/mL
2 | 27E7: chimeric anti-FLT3 antibody from mouse; VH SEQ ID NO: 11, VL SEQ ID NO: 12 (antibody, V domains shown, Clone 27E7, heavy chain variable region without a signal sequence; Clone 27E7, light chain variable region without a signal seqeunce) VH: EVKLEESGGDLVQPGGSMKLSCVASGFTFRNYWMNWVRQSPEKGLEWVAQIRLKSDNYATHYAESVKGRFTMSRDDSKSSVYLQMNTLRAEDTGIYYCTVSLARSDYWGQGTTLTVSSA VL: DVVMTQSPLTLSVTIGQPASISCKSSQSLLYSDGKTYLNWLLQRPGQSPKRLIYLVSKLDSGVPDRFTGSGSGTDFTLKISRVEAEDLGVYYCWQGTHFPYTFGGGTKLELKR | 82% | 69% | specifically bound | 0.01153 µg/mL
3 | 30B12: chimeric anti-FLT3 antibody from mouse; VH SEQ ID NO: 15, VL SEQ ID NO: 16 (antibody, V domains shown, Clone 30B12, heavy chain variable region without a signalseqeunce; Clone 30B12, light chain variable region without a signalseqeunce) VH: QVQLKVSGPGLVQPSQTLSLTCAVSGFSLSNYHVSWVRQPPGKGLEWIAAISSGGSTYYNSPLKSRLSISRDTSKSQVFLKMNSLQTEDTAIYFCTGEDGYTFGNVMDAWGQGASVTVSSA VL: DVVMTQTPLTLSVTIGQPASISCKSSQSLLYSDGKTYLNWLLQRPGQSPKRLIYLVSKLDSGVPDRFTGSGSGTDFTLKISRVEAEDLGVYFCWQGTHFPYTFGGGTKLERKR | – | – | – | 3.313 µg/mL
